Measured values: the RNAGym collection of RNA variant scans (doi:10.7554/elife.90254)
Read counts are not given, so values of variants with three or more changes are uncertain.

B1: LINE1-mini (parent)
chain: GGCAGAGCUCAACACAGCGUGGCAAAGUGGCUGUGGCUAGACUGCC

Variants of: B1
Assay: self-cleavage, relative activity (ratio to wild type); higher = more cleavage; in vitro, sequencing; the parent is a self-cleaving ribozyme

With G33A C42G C45A as the variant, how does the self-cleavage read?
Its self-cleavage is 0.12.

With U38C A39C G44A as the variant, how does the self-cleavage read?
Its self-cleavage is 0.07.

Which self-cleavage does the source give for G35C C37U C42A here?
Its self-cleavage is 0.02.

For G35U A39C G44U, which self-cleavage is on record?
The self-cleavage was 0.01.

With G33A G36U A39U as the variant, how does the self-cleavage read?
The self-cleavage was 0.

For G36C A39G U43C, which self-cleavage is on record?
The self-cleavage was 0.06.

For G33A C37G A39G, which self-cleavage is on record?
Its self-cleavage is 0.03.

Which self-cleavage does the source give for G33A G35C U38A here?
The self-cleavage was 0.04.

For A41U C42U C45A, which self-cleavage is on record?
The self-cleavage was 0.06.

Which self-cleavage does the source give for G33A G35C G36A here?
Its self-cleavage is 0.03.

For G36A A39C C45G, which self-cleavage is on record?
Its self-cleavage is 0.1.

For A39G U43G C46U, which self-cleavage is on record?
The self-cleavage was 0.04.

Which self-cleavage does the source give for G33A G36A A41U C45G here?
Its self-cleavage is 0.05.

With A39C C42U C45U as the variant, how does the self-cleavage read?
The self-cleavage was 0.05.

For G33U U38G U43A, which self-cleavage is on record?
Its self-cleavage is 0.29.

For G33U G36A G40U, which self-cleavage is on record?
The self-cleavage was 0.07.

For U32G U38A A39C C46U, which self-cleavage is on record?
The self-cleavage was 0.06.

With G33A A39G U43C as the variant, how does the self-cleavage read?
The self-cleavage was 0.03.

With A39U C42A C45A as the variant, how does the self-cleavage read?
The self-cleavage was 0.04.

With U34A G35A C37U as the variant, how does the self-cleavage read?
Its self-cleavage is 0.03.

With G36C A39C U43C as the variant, how does the self-cleavage read?
The self-cleavage was 0.08.

For G36U C37A C46G, which self-cleavage is on record?
The self-cleavage was 0.58.

For G36A A39U C46U, which self-cleavage is on record?
The self-cleavage was 0.14.

Which self-cleavage does the source give for U34G A41C C45G here?
Its self-cleavage is 0.08.

With G35C G36C C46G as the variant, how does the self-cleavage read?
Its self-cleavage is 0.02.

Which self-cleavage does the source give for G33A G35A C42A U43C here?
The self-cleavage was 0.01.

Which self-cleavage does the source give for G35U G40C C45U here?
Its self-cleavage is 0.02.

Which self-cleavage does the source give for G33U C37A U43G G44U C45U here?
Its self-cleavage is 0.01.

For G33U U38A G44A, which self-cleavage is on record?
Its self-cleavage is 0.04.

Which self-cleavage does the source give for G35U A39U G44A here?
Its self-cleavage is 0.07.

Which self-cleavage does the source give for G33U G36U U43C C45U here?
The self-cleavage was 0.05.

Which self-cleavage does the source give for G36U G40U C46G here?
Its self-cleavage is 0.44.

With G33A G35U G44A as the variant, how does the self-cleavage read?
The self-cleavage was 0.01.

With G35A G40U C46U as the variant, how does the self-cleavage read?
Its self-cleavage is 0.03.

For G40U A41C C42A, which self-cleavage is on record?
The self-cleavage was 0.06.

For G44A C45A C46A, which self-cleavage is on record?
The self-cleavage was 0.63.

With C37U A39C C45A as the variant, how does the self-cleavage read?
Its self-cleavage is 0.

Which self-cleavage does the source give for G33U A41G U43G here?
Its self-cleavage is 0.02.

For G33U A41G U43A, which self-cleavage is on record?
Its self-cleavage is 0.04.

For G40U C42A U43A, which self-cleavage is on record?
Its self-cleavage is 0.03.

Which self-cleavage does the source give for G35U C42A C45G here?
Its self-cleavage is 0.05.

For G36C C37U A41G G44A, which self-cleavage is on record?
The self-cleavage was 0.04.

With C37U A39G C45U as the variant, how does the self-cleavage read?
Its self-cleavage is 0.03.

Which self-cleavage does the source give for G33U A39C G44A here?
Its self-cleavage is 0.02.

Which self-cleavage does the source give for G33C G36U A39C here?
The self-cleavage was 0.03.

For G35C A39C C45A, which self-cleavage is on record?
The self-cleavage was 0.05.

With U34C A39C C45A as the variant, how does the self-cleavage read?
The self-cleavage was 0.02.

Which self-cleavage does the source give for C37G G40A C46A here?
Its self-cleavage is 0.

For A41U C42A C45A, which self-cleavage is on record?
The self-cleavage was 0.08.

Which self-cleavage does the source give for G33U G40A C45U here?
The self-cleavage was 0.06.

For U38C G40A C45G, which self-cleavage is on record?
Its self-cleavage is 0.04.

With G40A A41C C45A as the variant, how does the self-cleavage read?
The self-cleavage was 0.

Which self-cleavage does the source give for U34G C37A A41G here?
Its self-cleavage is 0.09.

Which self-cleavage does the source give for G33C U34G C42G C45A here?
Its self-cleavage is 0.11.

With G33U A39G C45A as the variant, how does the self-cleavage read?
The self-cleavage was 0.04.

With G33U U43C C46G as the variant, how does the self-cleavage read?
Its self-cleavage is 0.06.

Which self-cleavage does the source give for U38C A41U G44A here?
Its self-cleavage is 0.45.

Which self-cleavage does the source give for G33U C37U C45A here?
The self-cleavage was 0.06.

For G33U G35U C45U, which self-cleavage is on record?
Its self-cleavage is 0.15.

Which self-cleavage does the source give for G40A A41G G44U here?
The self-cleavage was 0.03.

Which self-cleavage does the source give for G33C G36C G40U here?
The self-cleavage was 0.03.

For G35C C37A A39U, which self-cleavage is on record?
Its self-cleavage is 0.08.

With G33U U38G C46G as the variant, how does the self-cleavage read?
The self-cleavage was 0.01.

For G36C C37A G40C, which self-cleavage is on record?
Its self-cleavage is 0.21.

Which self-cleavage does the source give for G33U U34C G36A here?
The self-cleavage was 0.16.

With C37A C42G C45U as the variant, how does the self-cleavage read?
The self-cleavage was 0.02.

Which self-cleavage does the source give for U34G G36A C37A A39C here?
The self-cleavage was 0.04.

Which self-cleavage does the source give for G35U G40A G44A here?
The self-cleavage was 0.06.

For G35U G44A C45U, which self-cleavage is on record?
The self-cleavage was 0.02.

For U34A A41C C42G, which self-cleavage is on record?
Its self-cleavage is 0.08.

Which self-cleavage does the source give for C42A G44A C45U here?
The self-cleavage was 0.07.

Which self-cleavage does the source give for G33A G35A A39G here?
The self-cleavage was 0.14.

Which self-cleavage does the source give for U34C A39C G44A here?
Its self-cleavage is 0.2.

With G33A U38A C46G as the variant, how does the self-cleavage read?
The self-cleavage was 0.13.

With C37A G40U A41C C42A as the variant, how does the self-cleavage read?
The self-cleavage was 0.12.

For U34A A41U C42G, which self-cleavage is on record?
The self-cleavage was 0.1.

For U32G U43A C46A, which self-cleavage is on record?
The self-cleavage was 0.27.

With C37U A39G C46G as the variant, how does the self-cleavage read?
The self-cleavage was 0.02.

With A39G G44U C46A as the variant, how does the self-cleavage read?
The self-cleavage was 0.03.

For G36U A39U G44U, which self-cleavage is on record?
The self-cleavage was 0.03.

With U34A G35U G36U C37U A39U as the variant, how does the self-cleavage read?
Its self-cleavage is 0.03.

For G36U C37A U38A, which self-cleavage is on record?
The self-cleavage was 0.

Which self-cleavage does the source give for G35C U38C A41G here?
Its self-cleavage is 0.02.

For C37G G44C C45U, which self-cleavage is on record?
Its self-cleavage is 0.02.

With G35C C37U G44U as the variant, how does the self-cleavage read?
The self-cleavage was 0.05.

With G35U C37A G40A as the variant, how does the self-cleavage read?
Its self-cleavage is 0.05.

For U34A G40U C46U, which self-cleavage is on record?
Its self-cleavage is 0.04.

Which self-cleavage does the source give for G35U C45A C46U here?
Its self-cleavage is 0.05.

For U32G U38A C46G, which self-cleavage is on record?
Its self-cleavage is 0.02.

With G33A C42U U43G as the variant, how does the self-cleavage read?
Its self-cleavage is 0.06.

With G35U G36C C46A as the variant, how does the self-cleavage read?
The self-cleavage was 0.04.

With U34G U38C G44A as the variant, how does the self-cleavage read?
The self-cleavage was 0.01.

With G33A C37U G40U as the variant, how does the self-cleavage read?
Its self-cleavage is 0.1.

For G35U A41G C42U, which self-cleavage is on record?
The self-cleavage was 0.07.

Which self-cleavage does the source give for U34G A39U C42U here?
Its self-cleavage is 0.

Which self-cleavage does the source give for C37A G44U C46G here?
The self-cleavage was 0.45.

With U38G U43A C45U C46U as the variant, how does the self-cleavage read?
The self-cleavage was 0.05.

With U32G G35C G36U A39G as the variant, how does the self-cleavage read?
Its self-cleavage is 0.02.

Which self-cleavage does the source give for C37U U38C A39U G44C here?
The self-cleavage was 0.03.

Which self-cleavage does the source give for U34A U43G C45U here?
Its self-cleavage is 0.33.

For G35C G36U A41U C42A, which self-cleavage is on record?
Its self-cleavage is 0.09.

Which self-cleavage does the source give for G35A G36U C42U here?
Its self-cleavage is 0.29.

Which self-cleavage does the source give for G33A G40C C42U here?
The self-cleavage was 0.08.

With A39G C42G C46U as the variant, how does the self-cleavage read?
Its self-cleavage is 0.1.

Which self-cleavage does the source give for G36C A39C C45U here?
The self-cleavage was 0.02.

Which self-cleavage does the source give for A41G G44C C46G here?
The self-cleavage was 0.01.

For U34A G35A G44A, which self-cleavage is on record?
The self-cleavage was 0.01.

With G36U C42G G44U as the variant, how does the self-cleavage read?
The self-cleavage was 0.03.

For G36U G40C U43C, which self-cleavage is on record?
The self-cleavage was 0.17.

With G36A C42G U43C as the variant, how does the self-cleavage read?
Its self-cleavage is 0.02.

Which self-cleavage does the source give for G36C U38G C45A C46A here?
Its self-cleavage is 0.

Which self-cleavage does the source give for G33A A39U A41G C42U here?
The self-cleavage was 0.04.

With U43A G44A C45U as the variant, how does the self-cleavage read?
The self-cleavage was 0.05.

Which self-cleavage does the source give for G33C G36C A41U here?
Its self-cleavage is 0.04.

For G35U G44A C46U, which self-cleavage is on record?
The self-cleavage was 0.

Which self-cleavage does the source give for U38A A39C A41G here?
The self-cleavage was 0.2.

Which self-cleavage does the source give for G33U G35U G44C here?
Its self-cleavage is 0.02.

For C37G U38C G44A, which self-cleavage is on record?
Its self-cleavage is 0.03.

Which self-cleavage does the source give for G36A G40U U43C here?
Its self-cleavage is 0.28.

With C42G G44A C46U as the variant, how does the self-cleavage read?
The self-cleavage was 0.03.
